# Laboratory results from the supplement of paper PMC7826260.
# This is one part of the list. Viral Rep nickase domains cut single-stranded DNA in vitro for 1 h at 37 °C with 3 µM enzyme; only the middle of the 90-letter strands is printed. Numbers give uncut DNA relative to the enzyme-free pool, as log2; strong cutting gives strongly negative numbers. There is no active / inactive call. The scaling is to total reads; values above 0 arise when much of the pool is cut.
# How the values were obtained:
# Experiment in all cases: uncleaved DNA left, log2 of reads against the no-enzyme library (log2 ratio); higher = less cleavage (more negative = more Rep cleavage of the k-mer); sequences stand for … in CTCGTCCG…ACCGGAGA
# [1] = system: T1, Rep nickase domain of Muscovy duck circovirus
# T1 sequence (protein, residues 1-111, tag omitted): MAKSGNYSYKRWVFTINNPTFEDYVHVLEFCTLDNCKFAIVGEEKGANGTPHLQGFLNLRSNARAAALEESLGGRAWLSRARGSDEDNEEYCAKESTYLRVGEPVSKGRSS
# Experimental: (§1)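 A pool of 90-nt single-stranded DNAs with seven random bases just before the constant AC of the nick site (name = the seven bases) was cut by 3 µM recombinant His6-SUMO-tagged Rep nickase domain (300 nM DNA, 50 mM HEPES pH 8.0, 50 mM NaCl, 1 mM MnCl2, 1 h, 37 °C, three replicates). Uncut DNA was amplified and sequenced.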
# [2] = system: T2, Rep nickase domain of banana bunchy top virus
# T2 sequence (protein, residues 1-94, tag omitted): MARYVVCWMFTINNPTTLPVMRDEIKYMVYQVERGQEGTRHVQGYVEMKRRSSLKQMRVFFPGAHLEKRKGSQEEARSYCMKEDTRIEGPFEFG
# Experimental: as §1
# [3] = system: T3, Rep nickase domain of cabbage leaf curl virus
# T3 sequence (protein, residues 1-116, tag omitted): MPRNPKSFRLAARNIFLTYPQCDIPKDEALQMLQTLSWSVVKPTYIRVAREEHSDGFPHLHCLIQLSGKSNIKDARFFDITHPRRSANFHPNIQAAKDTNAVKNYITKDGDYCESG
# Experimental: as §1
# [4] = system: T4, Rep nickase domain of chickpea chlorotic dwarf virus
# T4 sequence (protein, residues 1-124, tag omitted): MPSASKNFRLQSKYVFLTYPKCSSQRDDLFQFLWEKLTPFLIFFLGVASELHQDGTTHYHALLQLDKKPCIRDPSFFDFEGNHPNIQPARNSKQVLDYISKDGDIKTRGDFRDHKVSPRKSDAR
# Experimental: as §1
# [5] = system: T5, Rep nickase domain of faba bean necrotic yellows virus
# T5 sequence (protein, residues 1-98, tag omitted): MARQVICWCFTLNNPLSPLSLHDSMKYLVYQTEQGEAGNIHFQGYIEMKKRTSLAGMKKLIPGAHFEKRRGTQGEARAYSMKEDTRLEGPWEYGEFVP
# Experimental: as §1
# [6] = system: T6, Rep nickase domain of maize striate mosaic virus
# T6 sequence (protein, residues 1-117, tag omitted): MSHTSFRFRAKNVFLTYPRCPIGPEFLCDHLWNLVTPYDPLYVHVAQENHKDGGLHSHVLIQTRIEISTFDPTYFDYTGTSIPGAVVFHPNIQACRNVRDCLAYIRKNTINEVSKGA
# Experimental: as §1
# [7] = system: T7, Rep nickase domain of porcine circovirus 2
# T7 sequence (protein, residues 2-116, tag omitted): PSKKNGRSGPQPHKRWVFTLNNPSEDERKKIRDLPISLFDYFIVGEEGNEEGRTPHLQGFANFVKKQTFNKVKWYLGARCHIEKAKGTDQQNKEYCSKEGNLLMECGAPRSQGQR
# Experimental: as §1
# [8] = system: T8, Rep nickase domain of tomato golden mosaic virus
# T8 sequence (protein, residues 1-124, tag omitted): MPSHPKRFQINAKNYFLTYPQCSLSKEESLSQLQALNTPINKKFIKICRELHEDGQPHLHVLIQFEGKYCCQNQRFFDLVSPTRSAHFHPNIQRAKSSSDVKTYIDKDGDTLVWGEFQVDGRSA
# Experimental: as §1
# [9] = system: T9, Rep nickase domain of tomato yellow leaf curl virus
# T9 sequence (protein, residues 1-136, tag omitted): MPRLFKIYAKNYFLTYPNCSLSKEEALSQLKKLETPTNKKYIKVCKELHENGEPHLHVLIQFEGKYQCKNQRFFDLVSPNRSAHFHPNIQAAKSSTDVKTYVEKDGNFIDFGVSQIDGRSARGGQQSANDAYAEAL
# Experimental: as §1
# [10] = system: T10, Rep nickase domain of wheat dwarf virus
# T10 sequence (protein, residues 1-137, tag omitted): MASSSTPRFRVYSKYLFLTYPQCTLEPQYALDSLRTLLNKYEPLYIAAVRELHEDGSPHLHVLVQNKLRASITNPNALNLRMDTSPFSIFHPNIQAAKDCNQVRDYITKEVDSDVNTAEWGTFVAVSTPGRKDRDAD
# Experimental: as §1
Sequence,uncleaved DNA left (log2) [1],uncleaved DNA left (log2) [2],uncleaved DNA left (log2) [3],uncleaved DNA left (log2) [4],uncleaved DNA left (log2) [5],uncleaved DNA left (log2) [6],uncleaved DNA left (log2) [7],uncleaved DNA left (log2) [8],uncleaved DNA left (log2) [9],uncleaved DNA left (log2) [10]
GCCAATG,0.122,-0.00968,-0.227,0.104,0.148,-0.461,0.275,0.206,0.0253,0.0545
CGGTACT,-1.88,-0.317,0.278,-0.608,-0.673,1.27,-3.07,-0.109,-0.0932,-0.0685
AAGCCAT,0.112,-0.0312,0.271,0.337,0.102,1.08,-0.589,0.106,0.0694,0.189
AAAACAA,0.0424,0.0988,-0.0291,-0.783,0.119,-0.59,0.124,0.00897,0.0523,0.144
CACTAAC,0.00691,0.00904,-0.327,-1.7,0.0401,-0.82,-0.277,-0.0501,-0.0465,0.0201
TTGTAGC,0.0153,-0.0585,-0.532,-0.751,-0.119,-1.35,-0.0275,-0.112,-0.0142,-0.0733
CGACTAC,0.169,-0.028,0.0375,0.382,0.166,1,0.115,-0.0648,0.0303,0.176
AAACCTT,-0.182,-0.192,-1.04,-2.56,-0.109,-0.197,-0.937,-0.272,-0.0569,-0.403
CGAACCA,-0.0361,0.0234,-0.0807,-0.942,-0.0538,-0.256,-0.356,-0.0713,-0.0305,0.0189
TTAGTAA,0.122,0.0792,0.174,-0.18,-0.0767,0.0993,0.0532,-0.095,-0.0917,-0.0582
TAAAATT,-0.716,-0.948,-4.47,-3.47,-0.0701,-3.57,-3.61,-3.91,-0.134,-4.16
GTATATA,0.0796,0.139,0.298,0.876,0.141,1.68,0.111,0.178,0.183,0.194
TACTAGG,-0.0109,0.0767,0.386,1.06,0.0414,1.19,0.0259,0.125,-0.0983,0.014
AACGTGG,0.00743,-0.0739,-0.144,0.0483,-0.0724,-0.568,0.0552,-0.109,-0.194,-0.0257
AACTACA,-0.187,0.0272,-0.381,-2.93,0.146,-0.639,-2.34,0.141,0.173,0.0785
ATGGGAG,0.0837,0.0301,-0.196,0.456,0.0165,-0.313,0.261,0.00828,0.0135,-0.0558
TCCCTCA,-0.0452,-0.0224,-0.0701,-1.07,-0.0707,-0.22,-0.196,-0.0795,-0.076,-0.0274
CTTAACC,-0.118,0.159,-0.268,-1.73,0.132,-0.762,-0.581,0.013,0.0911,0.0915
TCCAAAG,-0.0478,-0.0329,-0.747,-0.582,0.0107,-1.21,0.161,0.0844,0.116,0.0192
GGCGGAA,0.12,0.11,0.336,1.07,0.127,1.18,0.154,0.107,0.0255,0.0126
TATACCC,-0.0908,-0.218,0.0567,-1.4,-0.0997,-0.298,-0.864,-0.0445,-0.0771,-0.0864

Sequence,uncleaved DNA left (log2) [1],uncleaved DNA left (log2) [2],uncleaved DNA left (log2) [3],uncleaved DNA left (log2) [4],uncleaved DNA left (log2) [5],uncleaved DNA left (log2) [6],uncleaved DNA left (log2) [7],uncleaved DNA left (log2) [8],uncleaved DNA left (log2) [9],uncleaved DNA left (log2) [10]
GTCTGCG,-0.0974,-0.0693,-0.647,-0.296,-0.0415,-0.705,0.0648,-0.137,-0.185,-0.153
TAACCCA,-0.322,0.0405,-1.4,-3.01,-0.0346,-0.736,-1.52,–,0.0383,-0.532
TGTGCCG,-0.0286,-0.257,-0.989,-0.000844,-0.0917,-0.971,0.0816,–,-0.126,-0.29
GGTTTCT,-0.33,0.0582,0.318,0.622,-0.105,1.6,-0.531,–,0.104,0.0226
GAGCCGT,0.00552,-0.000525,-0.0973,-0.0431,0.0328,-0.155,-0.0525,–,0.0851,0.143
CGCCAGT,0.0553,0.0265,-0.0906,-0.151,-0.0168,-0.153,-0.0506,–,-0.0304,-0.0409
GCAGGCT,0.00134,-0.106,-0.138,-0.24,-0.101,-0.332,-0.139,–,-0.0956,-0.163
GGTTGAG,0.158,0.077,-0.23,0.316,0.122,-0.458,0.304,–,0.198,0.0635
CATAGAC,0.161,0.0115,0.192,0.244,0.0254,-0.759,0.207,–,-0.0496,0.0912
CAAGCGA,0.0847,0.134,-0.672,-0.239,0.00834,-0.965,0.194,–,0.0974,0.0565
AATTGTA,-2.93,-0.932,-0.608,-1.82,0.0455,-1.28,-3.87,–,0.0332,-0.0656
TGTCGTT,-0.102,-0.0487,-0.0338,-0.995,-0.0833,-0.466,-0.907,–,0.0179,-0.0828
CTGGCGG,0.00329,-0.00335,0.601,1.33,-0.0125,1.61,0.104,–,-0.0176,0.0937
TAACGGT,0.0756,0.122,-0.637,-1.97,0.0088,1.45,0.0852,–,-0.0555,-0.0842
AGTTGAG,0.0903,-0.0785,-0.589,0.195,0.2,-0.76,0.147,–,0.139,0.00365
TATTTCG,0.0203,-0.124,-0.954,0.0113,0.108,-1.15,0.0846,–,-0.00041,-0.101
AGTGTCA,-0.00588,0.00191,0.159,0.34,-0.0265,1.01,-0.251,–,-0.0452,-0.0221
ACTGCAT,-0.0703,-0.0791,-0.272,-0.257,0.0554,-0.742,-0.0575,–,-0.0729,-0.129
ATCCTTG,-0.209,-0.0983,-0.578,-1.21,-0.11,-0.984,-0.0338,–,-0.112,-0.223
TCACCCT,-0.207,-0.0625,-0.26,-2.34,-0.132,-0.485,-0.883,–,-0.0742,-0.221
GAGTCGA,0.00333,0.0523,-0.0876,-0.0437,-0.0148,-0.389,-0.811,–,0.0479,0.0839

Sequence,uncleaved DNA left (log2) [1],uncleaved DNA left (log2) [2],uncleaved DNA left (log2) [3],uncleaved DNA left (log2) [4],uncleaved DNA left (log2) [5],uncleaved DNA left (log2) [6],uncleaved DNA left (log2) [7],uncleaved DNA left (log2) [8],uncleaved DNA left (log2) [9],uncleaved DNA left (log2) [10]
GAAGACG,0.167,0.024,-0.142,0.0425,0.0253,-0.146,0.216,–,0.0195,0.0401
GCCTCGT,-0.0434,-0.02,-0.0959,-0.121,-0.195,-0.457,-0.0827,–,0.00377,-0.177
TGAACTC,0.00476,0.119,0.222,0.432,-0.0088,0.812,-0.0377,–,0.0912,0.148
CTGGCCA,0.0713,0.077,0.0694,0.0284,0.0315,0.173,-0.0137,–,0.0785,-0.0221
ACCCTAG,0.085,0.0257,-0.581,0.078,0.172,-0.711,0.149,–,0.105,-0.0545
GAGCGGC,0.0145,-0.0147,0.0357,0.483,0.0185,0.912,-0.00149,–,-0.112,-0.0088
TGGGATG,0.157,0.0678,0.436,1.21,0.0105,1.44,0.178,–,-0.0489,-0.00738
TTAGCTT,0.00384,0.129,-0.0742,-1.67,0.00363,0.163,-0.0968,–,-0.00962,-0.0275
AAGTAAC,0.15,0.0493,-0.307,-1.23,0.0473,-0.447,-1.98,–,-0.0161,-0.031
GCTATGT,-0.0352,-0.129,0.0805,0.227,-0.0866,-0.0528,-0.0409,–,-0.0074,-0.139
AGGGCAC,0.0472,0.149,0.641,1.47,-0.0481,1.59,0.221,–,0.019,0.128
GTCCATG,0.0682,0.158,0.221,0.776,0.137,1.5,0.145,–,0.107,0.0753
CGGGATC,-0.0138,-0.118,0.59,1.5,-0.131,1.88,0.116,–,-0.149,-0.0162
GGCCTGG,-0.0492,0.0512,0.272,0.692,-0.0625,1.22,0.0248,–,-0.0948,-0.0117
AGTTAAG,0.0603,-0.0988,-0.791,-0.473,0.023,-1.27,0.141,–,-0.00414,-0.135
TAGTTCA,-0.433,-0.52,-0.22,-2.49,-1.27,-0.296,-3.36,–,0.0643,-0.0502
CAAGTCC,-0.0627,-0.0357,-0.119,-0.55,-0.105,-0.441,0.00273,–,-0.107,-0.0283
CCTTTGC,-0.0386,0.008,-0.799,-0.351,0.0708,-0.994,0.13,–,0.0929,0.0623
ACTAGTT,-0.0881,-0.0337,-0.435,-1.82,-0.0238,-0.56,-1.01,–,-0.0391,-0.0686
ATGATTT,-0.107,-0.337,-0.18,-2.38,-0.159,-0.513,-1.73,–,-0.188,-0.315
